{"source": "the antibiotic and cytotoxicity screens of Wong et al. (2023)", "note": "The other results are listed elsewhere or left out.", "data": [{"test_system": "HepG2", "experiment": "cytotoxicity call (relative viability < 0.9)", "conditions": "10 µM", "values": [{"smiles": "COCC(=O)N1CC(=O)N2[C@H](CO)[C@H](c3ccc(C#Cc4cccnc4)cc3)[C@@H]2C1", "cytotoxicity call": "inactive"}, {"smiles": "C[C@H](CO)N1C[C@H](C)[C@@H](CN(C)Cc2ccc(-c3ccccc3)cc2)Oc2ccc(NC(=O)C3CCCCC3)cc2C1=O", "cytotoxicity call": "inactive"}, {"smiles": "C[C@@H]1CN([C@@H](C)CO)S(=O)(=O)c2ccc(C#CC3CC3)cc2O[C@H]1CN(C)C(=O)c1cccc(F)c1", "cytotoxicity call": "inactive"}, {"smiles": "O=S(=O)(c1c[nH]c2ncccc12)N1CC(S(=O)(=O)N2CCOCC2)C1", "cytotoxicity call": "inactive"}, {"smiles": "CN1CCN(C(=O)C[C@H]2CC[C@@H]3[C@H](COC[C@@H](O)CN3S(=O)(=O)c3cccc(Cl)c3)O2)CC1", "cytotoxicity call": "inactive"}, {"smiles": "Cc1noc(C)c1NC(=O)N(C)C[C@H]1Oc2ccc(NS(=O)(=O)c3cccs3)cc2CC(=O)N([C@H](C)CO)C[C@@H]1C", "cytotoxicity call": "inactive"}, {"smiles": "C[C@@H]1CCCCO[C@H](CN(C)C(=O)NC2CCCCC2)[C@@H](C)CN([C@@H](C)CO)C(=O)c2cc(NC(=O)NC3CCCCC3)ccc2O1", "cytotoxicity call": "inactive"}, {"smiles": "COc1cccc(C(=O)Nc2ccc3c(c2)C(=O)N(C)[C@H]2CC[C@H](CC(=O)NCCCN4CCOCC4)O[C@H]2CO3)c1", "cytotoxicity call": "inactive"}, {"smiles": "CC(C)=CCc1c2c(c3occ(-c4ccc(O)cc4)c(=O)c3c1O)C=CC(C)(C)O2", "cytotoxicity call": "inactive"}, {"smiles": "CC(C)NC(=O)N(C)C[C@@H]1Oc2ccc(NS(=O)(=O)c3ccc(F)cc3)cc2C(=O)N([C@H](C)CO)C[C@H]1C", "cytotoxicity call": "inactive"}, {"smiles": "CN1C(=O)COc2cc(N)ccc21", "cytotoxicity call": "inactive"}, {"smiles": "Cc1noc(C)c1S(=O)(=O)Nc1ccc2c(c1)C(=O)N([C@H](C)CO)C[C@H](C)[C@@H](CN(C)Cc1ccc(-c3ccccc3)cc1)O2", "cytotoxicity call": "inactive"}, {"smiles": "NCc1ccccc1-c1ccsc1", "cytotoxicity call": "inactive"}, {"smiles": "COCC(=O)N(C)C[C@@H]1Oc2cc(C#CCN(C)C)ccc2S(=O)(=O)N([C@H](C)CO)C[C@@H]1C", "cytotoxicity call": "inactive"}, {"smiles": "CCCC[C@H](C)C[C@H](O)/C=C/[C@H]1[C@H](O)CC(=O)[C@@H]1CCCC/C=C/C(=O)O", "cytotoxicity call": "inactive"}, {"smiles": "C[C@H](CO)N1C[C@H](C)[C@@H](CN(C)C(=O)Cc2ccccc2)OCCCC[C@H](C)Oc2ccc(NC(=O)Nc3ccc4c(c3)OCO4)cc2C1=O", "cytotoxicity call": "inactive"}, {"smiles": "Cc1nn(C)cc1NC(=O)C[C@@H]1CC[C@@H]2[C@H](COc3ccc(NC(=O)C4CCOCC4)cc3C(=O)N2C)O1", "cytotoxicity call": "inactive"}, {"smiles": "Cc1noc(C)c1NC(=O)N(C)C[C@H]1Oc2ccc(NC(=O)Nc3ccc(C(F)(F)F)cc3)cc2CC(=O)N([C@@H](C)CO)C[C@H]1C", "cytotoxicity call": "inactive"}, {"smiles": "COc1ccccc1S(=O)(=O)N[C@@H]1C=C[C@H](CC(=O)N2CCOCC2)O[C@@H]1CO", "cytotoxicity call": "inactive"}, {"smiles": "COc1ccc(S(=O)(=O)Nc2ccc3c(c2)C(=O)N([C@H](C)CO)C[C@H](C)[C@H](CN(C)S(=O)(=O)c2ccc(C)cc2)O3)cc1", "cytotoxicity call": "inactive"}, {"smiles": "Cc1noc(C)c1S(=O)(=O)N(C)C[C@H]1Oc2ccc(NC(=O)Cn3cnnn3)cc2CC(=O)N([C@H](C)CO)C[C@H]1C", "cytotoxicity call": "inactive"}, {"smiles": "CC1=CC2C(C(C)C)CCC(C)(O)C2CC1", "note": "(configuration not stated)", "cytotoxicity call": "inactive"}, {"smiles": "COC(=O)Cc1cccn1C", "cytotoxicity call": "inactive"}, {"smiles": "COc1ccc(-c2cccc(-c3ccc([C@H]4CC(=O)C[C@@H](c5ccccc5)C45C(=O)OC(C)(C)OC5=O)cc3)c2)cc1", "cytotoxicity call": "inactive"}, {"smiles": "C[C@H]1CN([C@@H](C)CO)C(=O)Cc2cc(NC(=O)CCCCCC(=O)Nc3ccccc3N)ccc2O[C@@H]1CN(C)Cc1ccccc1", "cytotoxicity call": "inactive"}, {"smiles": "C[C@H]1CN([C@@H](C)CO)C(=O)c2cc(C#CCN(C)C)cnc2O[C@@H]1CN(C)C(=O)c1ccc2c(c1)OCO2", "cytotoxicity call": "inactive"}, {"smiles": "C[C@H](O)C#Cc1ccc2c(c1)O[C@@H](CN(C)C(=O)Nc1ccccc1)[C@H](C)CN([C@@H](C)CO)S2(=O)=O", "cytotoxicity call": "inactive"}, {"smiles": "COC(=O)[C@H](Cc1ccccc1)N1CC(/C=C/C2CC2)=C[C@@H]1[C@@H](O)CCn1cc(-c2ccc(C(=O)NO)s2)nn1", "cytotoxicity call": "inactive"}, {"smiles": "C[C@@H]1CN([C@@H](C)CO)C(=O)c2cc(Br)cnc2O[C@@H]1CN(C)S(=O)(=O)c1ccc(F)cc1", "cytotoxicity call": "inactive"}, {"smiles": "C[C@H]1CN([C@@H](C)CO)C(=O)c2cc(C#CCc3ccccc3)cnc2O[C@@H]1CN(C)C(=O)C1CCOCC1", "cytotoxicity call": "inactive"}, {"smiles": "Cc1noc(C)c1S(=O)(=O)Nc1ccc2c(c1)C(=O)N([C@H](C)CO)C[C@H](C)[C@@H](CN(C)C(=O)Nc1ccccc1)OCCCC[C@@H](C)O2", "cytotoxicity call": "inactive"}, {"smiles": "Cc1ccc(S(=O)(=O)Nc2ccc3c(c2)C(=O)N([C@H](C)CO)C[C@H](C)[C@H](CN(C)Cc2ccc(C(F)(F)F)cc2)OCCCC[C@H](C)O3)cc1", "cytotoxicity call": "inactive"}]}]}
